# Test results published in article PMC12040169 (PLOS Biology, 2025).
# This is one part of the list.
# System: T1, C. trachomatis L2/434/Bu expressing GFP (CTL2-GFP)
# T1 construct: L2/434/Bu GFP intracellular growth in HeLa cells
# Design: species or system HeLa; C. trachomatis total inclusion area by high-content imaging, normalised to DMSO
# Conditions: total inclusion area; 28.5 h, 10 µM; inhibitor
# In short: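 Bulk GFP and resorufin signals were read first. Wells were then fixed, stained with Hoechst and imaged to detect GFP inclusions and host nuclei. MICs followed the previously described calculation.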
row,SMILES,% of control remaining
1,O=C(CNS(=O)(=O)Cc1ccccc1[N+](=O)[O-])Nc1ccc(F)cc1 [CBK042228],92.8367
2,CCN(Cc1ccccc1)Cc1ccco1 [CBK261884],102.1
3,C1=C(CN2CCn3nc(CNc4cnccn4)cc3C2)CCCC1 [CBK307406],34.671
4,CC(=O)Nc1ccc(-c2csc(N3CCN(C)CC3)n2)cc1 [CBK305865],78.9588
5,CC(CC(=O)O)CC(=O)Nc1ccc(C(=O)O)cc1 (stereo not shown) [CBK265560],97.281
6,Cc1ccc(C2=NN(C(=O)CCC(=O)O)C(c3cc4cccc(C)c4[nH]c3=O)C2)cc1 (stereo not shown) [CBK296927],92.9793
7,O=C(c1cccs1)N(Cc1ccco1)c1ccc(O)cc1 [CBK269256],94.6358
8,CCc1cc(C(=O)OC)c(NC(=S)Nc2nc3cc(C)c(C)cc3s2)s1 [CBK267116],122.432
9,Cc1nn(CC(=O)N2CCCCC2C)c(=O)c2cc3occc3n12 (stereo not shown) [CBK283622],93.1767
10,CC(=O)Nc1ccc(S(=O)(=O)N2CCN(C/C=C/c3ccccc3)CC2)cc1 [CBK261545],83.4418
11,Cc1ccccc1C(=O)NC(=S)Nc1sc2c(c1C#N)CCCC2 [CBK264403],110.97
12,CCn1ncc(CN2C3CCC2CC(O)(c2cccc(F)c2)C3)c1C (stereo not shown) [CBK282754],102.128
13,OCCN(Cc1cccnc1)Cc1cccn1-c1cccc(F)c1 [CBK283018],112.714
14,CS(=O)(=O)c1nsc(Cl)n1 [CBK007229],70.2036
15,Cc1ccc(C(=O)CN2CCC3(CC2)CC(=O)c2cc(Br)ccc2O3)cc1 [CBK162266],90.7067
16,O=c1[nH]c2cccc(O)c2o1 [CBK048613],30.3278
17,O=S(=O)(Nc1cccc(Cl)c1)c1ccc(Cl)c(Cl)c1 [CBK044636],80.1043
18,Cn1nc([N+](=O)[O-])nc1Sc1nnnn1-c1ccc(C(=O)O)cc1 [CBK266961],92.1081
19,COc1ccccc1/C=C/CN1CCNC(=O)C1CC(=O)O (stereo not shown) [CBK269845],106.9
20,COc1ccc(CN2CCN(S(=O)(=O)c3ccc(Cl)cc3)CC2)cc1OC [CBK264204G],89.1529
21,CN(C)c1ncnc2[nH]ncc12 [CBK016810],75.0082
22,CCN1CC2(CCN(CCCC#N)CC2)c2ccccc21 [CBK136995],105.054
23,COC(=O)[C@@H]1CN(C(=O)Nc2ccccc2)CCN1C(=O)C1CCCCC1 [CBK289607],86.5657
24,CC(C)n1c(=O)n(CC(=O)N(C)C2CCCCC2)c2cccnc21 [CBK283695],82.7021
25,COc1cccc2c3c([nH]c12)C1(CCN(CCCC#N)CC1)N(C(C)=O)CC3 [CBK039722],87.503
26,CC(C)[C@@H](CO)Nc1cc(-c2cccc(Br)c2)nc2ccnn12 [CBK037117],151.095

row,SMILES,% of control remaining
1,O=C(Nc1ccc(-c2nc3ccccc3o2)c(O)c1)c1ccc(-c2cccc(Cl)c2)o1 [CBK263422],94.6575
2,O=C(Nc1c(F)cccc1F)N(Cc1cc(F)cc(F)c1)CC1CCNCC1 [CBK049795],43.234
3,COc1ccc2c(c1)cc(C(=O)N1CCCn3cncc3C1)n2C [CBK306516],74.2926
4,CC1CCCN(c2ccc(NC(=O)c3cccs3)cc2[N+](=O)[O-])C1 (stereo not shown) [CBK266402],89.7329
5,CCc1noc(CN2CCCC(c3ccc(C(=O)O)cc3)C2)n1 (stereo not shown) [CBK307102],61.3667
6,Cc1cc(NC(=O)Nc2cccc(Cl)c2C)no1 [CBK288245],82.6867
7,CCn1c(C2CCN(C(=O)c3ccc(C)c(Cl)c3)CC2)nn(C)c1=O [CBK307280],70.3289
8,CN(C)c1cccc2c(S(=O)(=O)n3c(=O)n(CCc4c[nH]c5ccccc45)c4ccccc43)cccc12 [CBK106511],88.2592
9,Cc1ccc(CN(CCCN2CCOCC2)Cc2ccoc2)o1 [CBK283234],90.9667
10,O=[N+]([O-])c1nn(-c2ccc(Cl)cc2)[n+]([O-])c1NCc1ccccn1 [CBK268270],64.2893
11,C#CCn1nnc2ccccc21 [CBK028164],92.7175
12,COc1ccc(CCCC(=O)Nc2cc(N3CCNCC3)ncn2)cc1OC [CBK107856],91.5598
13,CC1(C)[C@H]2CC/C(=N/O)[C@]1(C)NC2=O [CBK006513],35.3996
14,Cc1ccc(N2CCN(S(=O)(=O)c3ccc(I)cc3)CC2)c(C)c1 [CBK098562],94.2994
15,O=C(Nc1ccccc1C(=O)NCc1ccccc1)c1cccc(F)c1 [CBK269351],102.069
16,CC(C)Cc1csc2nc(-c3ccc(Br)cc3)oc(=O)c12 [CBK026692],95.1742
17,CNC(=O)c1sc2ccccc2c1C1CCN(S(=O)(=O)c2ccc(C)c(C)c2)C1 (stereo not shown) [CBK285877],92.5142
18,O=C(O)CCn1cc(/C=C2\SC(=S)NC2=O)c(-c2cccc(Br)c2)n1 [CBK265287],104.262
19,NC(=O)Cn1cc(CNC2(c3ccccc3)CC2)c2ccccc21 [CBK282776],78.9882
20,CCOC(=O)c1cc(-c2ccc(OC)cc2)nn1-c1ccc(C(=O)O)cc1 [CBK296133],71.2028
21,O=C1Nc2ccc(C(=O)NCC(O)CO)cc2/C1=C/c1c[nH]c2ncccc12 (stereo not shown) [CBK115363C],64.3083
22,Cc1cc(C)nc(N2CCC(c3cc(CCOc4ccc(C(F)(F)F)cc4)[nH]n3)C2)n1 (stereo not shown) [CBK286073],84.1631
23,CC(NC(=O)Nc1ccccc1O)(C(F)(F)F)C(F)(F)F [CBK268019],78.6408
24,CCOc1cccc(CNc2nn[nH]n2)c1OCc1ccc(C)cc1 [CBK288127],101.462
25,CN(C)Cc1ccccc1Cn1cncc1-c1cnn(C)c1 [CBK281764],90.259
26,Nc1nonc1-c1nc2ccccc2o1 [CBK009829],51.0422
